# Hit rate of the full screen: of about 310,000 compounds, about 2,200 (0.71%) showed an effect of 50% or more. Effects have a minus sign here. The list shows a part of the results.
# Biological target: human ether-à-go-go-related gene (hERG) potassium channel (human, UniProt Q12809)
# Assay: primary screen, population patch clamp on CHO cells stably expressing hERG
# human ether-à-go-go-related gene (hERG) potassium channel, sequence (Q12809 whole entry, looked up): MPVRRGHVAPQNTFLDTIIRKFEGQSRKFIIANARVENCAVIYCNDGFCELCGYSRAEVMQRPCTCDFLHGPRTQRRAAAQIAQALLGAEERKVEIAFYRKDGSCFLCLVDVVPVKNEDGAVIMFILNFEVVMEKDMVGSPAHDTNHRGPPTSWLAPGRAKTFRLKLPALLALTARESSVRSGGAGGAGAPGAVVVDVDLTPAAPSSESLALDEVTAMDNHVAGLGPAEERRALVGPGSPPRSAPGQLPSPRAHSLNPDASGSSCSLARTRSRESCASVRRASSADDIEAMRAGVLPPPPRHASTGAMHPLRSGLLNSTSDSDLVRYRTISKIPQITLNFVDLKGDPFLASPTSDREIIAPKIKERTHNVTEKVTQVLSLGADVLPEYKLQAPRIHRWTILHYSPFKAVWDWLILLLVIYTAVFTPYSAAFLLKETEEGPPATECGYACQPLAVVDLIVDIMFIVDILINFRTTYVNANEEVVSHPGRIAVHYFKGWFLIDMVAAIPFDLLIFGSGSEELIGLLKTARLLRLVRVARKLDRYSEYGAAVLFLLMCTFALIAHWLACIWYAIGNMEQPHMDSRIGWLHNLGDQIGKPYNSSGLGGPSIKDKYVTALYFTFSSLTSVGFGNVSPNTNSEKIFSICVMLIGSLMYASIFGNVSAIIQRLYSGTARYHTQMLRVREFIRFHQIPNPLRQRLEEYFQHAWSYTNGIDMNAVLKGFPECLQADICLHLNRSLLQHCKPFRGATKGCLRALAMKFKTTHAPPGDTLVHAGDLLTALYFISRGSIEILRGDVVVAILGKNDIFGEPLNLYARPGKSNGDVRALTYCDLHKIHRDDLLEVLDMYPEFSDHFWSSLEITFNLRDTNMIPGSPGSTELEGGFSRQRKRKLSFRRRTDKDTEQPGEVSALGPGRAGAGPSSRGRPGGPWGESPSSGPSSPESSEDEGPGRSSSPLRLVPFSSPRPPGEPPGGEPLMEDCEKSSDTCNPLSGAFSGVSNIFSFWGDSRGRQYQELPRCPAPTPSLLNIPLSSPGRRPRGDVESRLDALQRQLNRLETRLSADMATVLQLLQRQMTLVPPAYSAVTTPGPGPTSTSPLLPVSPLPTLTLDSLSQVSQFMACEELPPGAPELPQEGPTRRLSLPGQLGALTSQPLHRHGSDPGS
row,Structure (SMILES),"hERG current change (%, negative = inhibition) at 1uM"
1,CC(C)(C)c1cc(CCC(=O)NCCc2ccccn2)cc(C(C)(C)C)c1O,12.7%
2,CCN(C(=O)CSc1cc(C)c2cccc(C)c2n1)C1CCS(=O)(=O)C1 (centres unmarked),1.18%
3,O=C(O)CCSCC(=O)c1ccc2c(c1)OCCO2,8.55%
4,COc1ccc(NC(=O)CSc2nc3ccccc3c(=O)[nH]2)cc1S(N)(=O)=O,7.16%
5,Fc1ccc(C2CC(c3ccco3)=NN2c2ccccc2)cc1 (centres unmarked),8%
6,Cc1cccc(-n2nnnc2SCC(=O)NCC2(N3CCOCC3)CCCCC2)c1C,-7.34%
7,Nc1c(C(=O)Nc2ccc(Cl)cc2)oc2ccccc12,13.8%
8,C/C(=N\NC(=S)Nc1c(C)cccc1C)c1ccc(O)cc1,15.6%
9,COc1ccc(CNS(=O)(=O)c2cc(-c3cc(C)no3)ccc2C(C)C)cc1,14.8%
10,O=C(Nc1ccc(N2CCCC2)cc1)c1cccc(Cl)c1,14.4%
11,CCn1cc(C(=O)Nc2ccc(F)c(F)c2)cn1,7.49%
12,Cc1nc(S(=O)(=O)c2cccc(Cl)c2)nc2c1CCC2,7%
13,Cc1ccc(S(=O)(=O)Nc2cccc(NC(=O)CN3CCCCC3)c2)cc1.O=C(O)C(=O)O,3.96%
14,O=C1c2ccc([N+](=O)[O-])cc2C(=O)N1c1ccc(Cl)cn1,17.4%
15,Cc1cc(-c2ccc(S(=O)(=O)N(C)Cc3ccccc3)cc2)on1,14.6%
16,COc1ccc(Oc2c(Cl)cnn(-c3ccccc3)c2=O)cc1,-9.32%
17,O=C(Cn1cccn1)N1CCCC(N2CCN(Cc3ccc4c(c3)OCO4)CC2)C1 (centres unmarked),15.5%
18,Cc1csc(=O)n1CC(=O)Nc1ccc(Cl)cc1F,1.89%
19,CCCCc1cc2c(s1)CCCC/C2=N/O,2.41%
20,O=C(c1ccc(F)cc1)n1cc(C(=S)N2CCOCC2)c2ccccc21,13.3%
21,CC1CCN(c2ccc3nnc(CCC(=O)Nc4ccc(F)c(F)c4)n3n2)CC1,7.9%
22,CC(C)n1nc(C(=O)Nc2nc3ccccc3[nH]2)c2ccccc2c1=O,7.7%
23,CNC(=S)N(CCc1ccccc1)Cc1cc2cc(OC)c(OC)cc2[nH]c1=O,0.771%

row,Structure (SMILES),"hERG current change (%, negative = inhibition) at 1uM"
1,O=C([O-])CC1S/C(=N/N=C/C=C/c2ccccc2)NC1=O.[Na+] (centres unmarked),8.33%
2,O=C(Nc1ccccc1Cl)N1C2CCC1CC(O)(c1cccnc1)C2 (centres unmarked),-8.38%
3,O=C1N=c2ccccc2=C1c1sc(NS(=O)(=O)c2ccccc2)nc1O,7.09%
4,C/C(=N\NC(=O)c1ccc(CSc2nc(C)cc(C)n2)cc1)c1ccco1,-6.01%
5,CCc1nnc(NC(=O)C2Cc3ccccc3CN2S(=O)(=O)c2ccc(C)cc2)s1 (centres unmarked),16.1%
6,Cc1cc(C)cc(OCC(=O)OCC(=O)NCc2cccs2)c1,11.9%
7,COC(=O)C1=C(NC(=O)COc2ccc(Cl)cc2Cl)CCS1,13.1%
8,O=C(Nc1ccccc1)Nc1ccccn1,12.4%
9,CSc1nsc(SCC(=O)NCc2ccc(C)cc2)n1,12.7%
10,CN(C)S(=O)(=O)c1cccc(C(=O)NC2CCCc3ccccc32)c1 (centres unmarked),8.67%
11,COc1ccc(C=C(C#N)C#N)c(CSc2ccccn2)c1,11.1%
12,CCOc1ccc(S(=O)(=O)N2CCN=C2c2ccccc2)c(C)c1C,-0.657%
13,Cc1ccc(NC(=O)CSc2nnc3c(n2)[nH]c2ccccc23)cc1,8.92%
14,CC(C)OC(=O)c1ccc(S(N)(=O)=O)o1,5.04%
15,CCc1ccc(NC2=NCC(=O)N2c2ccc3c(c2)OCCO3)cc1,9.34%
16,Cc1cc(C)c2c(N=CN(C)C)c(C(=O)N3CCN(c4ncccn4)CC3)sc2n1,3.59%
17,CC12CCC(C(=O)Nc3ccc(Cl)cc3)([C@H](Br)C1=O)C2(C)C (some centres unmarked),7.5%
18,CNc1ccccc1C(C)(C)c1cc(-c2cccc(OC)c2)no1,8.57%
19,O=C(Nc1ccc(N2CCOCC2)cc1)C1CC1,14%
20,O=C(NC1CCCCC1)C(=O)c1c(-c2ccccc2)[nH]c2ccccc12,9.08%
21,O=C(Nc1ccccc1Cl)N1CCN(c2ccc3nncn3n2)CC1,1.61%
22,CCOP(=O)(Cc1ccc(C(C)(C)CC(C)=O)o1)OCC,9.28%
23,O=C(O)CSc1nnc(COc2ccc(Br)cc2)n1-c1ccccc1,9.98%

row,Structure (SMILES),"hERG current change (%, negative = inhibition) at 1uM"
1,CCN(CC)C(=O)c1nc[nH]c1C(=O)N(C)Cc1ccccc1,13.7%
2,CC1(c2ccccc2)NC(=O)N(CC(=O)NC(=O)NCc2ccco2)C1=O (centres unmarked),10.3%
3,COc1ccc(NC(=O)CNC(=O)C2CCCCC2)cc1,11.8%
4,CC(=O)Oc1ccc(C(=O)NCc2ccc3c(c2)OCO3)cc1,9.9%
5,COCCn1c(SC(C)C(=O)Nc2ccc(N3CCOCC3)cc2)nnc1-c1ccncc1 (centres unmarked),6.75%
6,O=C(COC(=O)c1ccc(S(=O)(=O)N2CCCC2)cc1)Nc1cccc(Cl)c1,4.86%
7,C/C(CC(=O)Nc1ccc(Cl)cc1C(F)(F)F)=N\NC(N)=S,12.1%
8,Clc1ccc(Sc2cc(N3CCOCC3)nc(-c3ccccc3)n2)cc1,10.5%
9,CC1CCCN(c2ccc(C(=O)OCC(=O)N3c4ccccc4Sc4ccccc43)cc2[N+](=O)[O-])C1 (centres unmarked),8.29%
10,Cc1nc([N+](=O)[O-])cn1-c1ccc(N)cc1,6.44%
11,C=CCc1cccc2cc(NC(C)=O)c(=O)oc12,-4.86%
12,Nc1cccc(CP(=O)(c2ccccc2)c2ccccc2)c1,17.1%
13,Cc1ccc(S(=O)(=O)Nc2c(C)n(C)n(-c3ccccc3)c2=O)cc1,9.71%
14,COc1cc(/C=N/NC(=S)N/N=C/c2cc(OC)c(OC)c(OC)c2)cc(OC)c1OC,-3.01%
15,C/C=C/Cn1cccc(C(=O)Nc2ccc(OC)cc2)c1=O,3.63%
16,CN(C)/C(CN1CCN(C=O)CC1)=C1\N=C(c2ccccc2)OC1=O,-14.8%
17,CCCSC(=S)c1c(C)[nH]n(-c2ccccc2)c1=O,13.3%
18,Cc1ccc(OCc2cc(C(=O)NC(C)Cc3cccnc3)no2)cc1C (centres unmarked),-34%
19,Cn1c(SCC#N)nc2ccccc2c1=O,10.7%
20,N/C(=N\OC(=O)CCC1CCCC1)c1ccc(Cl)cc1,15.3%
21,CC1(C)Cc2ccccc2-c2[nH]c(=S)[nH]c(=O)c21,11.8%
22,C=C(C)CSC1=C(C#N)C(c2ccsc2)CC(=O)N1 (centres unmarked),0.848%
23,CCOc1ccc(S(=O)(=O)NCCC(=O)Nc2ncccc2C)cc1,10.5%

row,Structure (SMILES),"hERG current change (%, negative = inhibition) at 1uM"
1,Cc1csc(N)n1,10.7%
2,Fc1ccc(-n2cc(CNCCc3ccncc3)c(-c3ccccc3Cl)n2)cc1,-3.18%
3,C=CCNC(=O)NC(=O)COC(=O)COc1ccc(Br)cc1F,7.39%
4,CCNC(=O)Cn1cc(C#N)c2ccccc21,0.917%
5,COc1ccc(-n2nnc3c(=O)n(Cc4cccc(C)c4)cnc32)cc1,-12.9%
6,O=C(NC1(C(F)(F)F)N=C(c2ccccc2)NC1=O)c1ccc(Cl)cc1Cl (centres unmarked),-10.2%
7,CCn1c(=O)c2ccccc2n(Cc2cccc([N+](=O)[O-])c2)c1=O,16.4%
8,CCOC(=O)C1=C(C)NC(=O)NC1c1ccc2c(c1)OCCO2 (centres unmarked),11.1%
9,Cc1ccc(S(=O)(=O)CCC(=O)NCCc2ccc(Cl)cc2)cc1,5.75%
10,COc1cccc(CN(C(=O)CN2C(=O)c3ccccc3S2(=O)=O)C(C(=O)NCC2CCCO2)c2ccco2)c1 (centres unmarked),-50.1%
11,CCOC(=O)c1cc2c(nc1NC(=S)Nc1ccccc1)CC(C)(C)OC2,6.85%
12,O=C1N(Cc2cccnc2)C[C@@H]2C[C@@H](c3cccc(Oc4ccccc4)c3)N3CCC[C@@]123,-4.79%
13,Cc1cc(C)n2nc(SCC#N)nc2n1,-7.27%
14,O=C(Cn1cc2c(n1)CCCC2)NCCCN1CCCC1,8.91%
15,Cc1nn(CCO)c2c1C(=O)CCC2,9.11%
16,Cc1nn2c(N3CCN(CCO)CC3)c3c(nc2c1-c1ccccc1)CCCC3,5.22%
17,COc1cnn(-c2ccc(C)cc2)c(=O)c1Br,10.8%
18,O=C(COC(=O)/C=C/c1ccc(Br)o1)NC1CCCCC1,7.52%
19,COc1cccc(NC(=O)/C=C/c2ccc(S(=O)(=O)N3CCOCC3)cc2)c1,8.02%
20,O=C(CN(C(=O)CNS(=O)(=O)c1ccccc1)c1ccc2c(c1)OCCO2)NCc1ccco1,3.62%
21,COc1cccc(/C=N/NC(=O)CCc2c(C)n[nH]c2C)c1O,4.94%
22,CC(NC(=O)c1ccc(N)cc1)c1ccccc1 (centres unmarked),4.39%
23,COc1ccc(CCNC(=O)CCCn2ncn3c(cc4occc43)c2=O)c(OC)c1,10.5%
